Assay results as given in PubChem BioAssay (NCI).
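How tested: cells in 96-well plates exposed to compound for 48 hours at five concentrations. At the GI50, growth is halved.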 Not every entry of the source has a single result; some have several. This is not the full list of results. There may be further records. Records of one sample usually come from different ranges of test concentrations, not given here; a value can be the end of its range.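 TGI denotes the concentration required for complete inhibition of growth.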

How the values were obtained:
Assay in all cases: NCI-60 cell line screen, 48 h
SK-MEL-2 melanoma = test system: SK-MEL-2 melanoma
SNB-75 CNS = test system: SNB-75 CNS
UACC-257 melanoma = test system: UACC-257 melanoma
RXF 393 renal = test system: RXF 393 renal
SF-268 CNS = test system: SF-268 CNS
SR leukemia = test system: SR leukemia
ACHN renal = test system: ACHN renal
NCI-H522 lung = test system: NCI-H522 lung
MDA-MB-231 breast = test system: MDA-MB-231 breast
OVCAR-3 ovarian = test system: OVCAR-3 ovarian
SK-OV-3 ovarian = test system: SK-OV-3 ovarian
U251 CNS = test system: U251 CNS
T-47D breast = test system: T-47D breast
SF-539 CNS = test system: SF-539 CNS
HL-60(TB) leukemia = test system: HL-60(TB) leukemia
A498 renal = test system: A498 renal
OVCAR-5 ovarian = test system: OVCAR-5 ovarian
UO-31 renal = test system: UO-31 renal
MCF7 breast = test system: MCF7 breast
HOP-92 NSCLC = test system: HOP-92 NSCLC
UACC-62 melanoma = test system: UACC-62 melanoma
SK-MEL-5 melanoma = test system: SK-MEL-5 melanoma
K-562 leukemia = test system: K-562 leukemia
COLO 205 colon = test system: COLO 205 colon
RPMI-8226 leukemia = test system: RPMI-8226 leukemia
HOP-62 NSCLC = test system: HOP-62 NSCLC
KM20L2 colon = test system: KM20L2 colon
XF 498 CNS = test system: XF 498 CNS
EKVX NSCLC = test system: EKVX NSCLC

N#Cc1c(NCc2ccccc2)nc(NCc2ccccc2)c(C#N)c1-c1ccc(Cl)cc1
GI50 (SK-MEL-2 melanoma): > 50 µM and 83.9 nM

CC1=C/C=C/C(=O)O[C@@H]([C@H](C)[C@H](O)[C@@H](C)NC(=O)C(C)C)[C@H](C)/C=C/C(C)=C/[C@H]2C=CCC[C@@]2(C)\C=C\1
GI50 (SNB-75 CNS): 7.76 nM and 2.95 µM
GI50 (UACC-257 melanoma): 3.89 µM and 214 nM
GI50 (RXF 393 renal): 57.6 nM and 776 nM
GI50 (SF-268 CNS): 7.66 µM and 325 nM

COc1cc2c(c(O)c1Cl)C(=O)c1c(O)cc(C[C@H](C)O)cc1[C@H]2[C@H]1c2cc(C[C@H](C)O)cc(O)c2C(=O)c2c1cc(OC)c(Cl)c2O
GI50 (SR leukemia): 380 nM and 15.3 µM
TGI (ACHN renal): 5.09 µM and > 100 µM
TGI (UACC-257 melanoma): 4.93 µM and 71.6 µM
TGI (NCI-H522 lung): 6.67 µM and > 100 µM
TGI (MDA-MB-231 breast): 4.64 µM and 58.5 µM
TGI (SK-MEL-2 melanoma): 2.96 µM and 53.3 µM
TGI (RXF 393 renal): 6.63 µM and 67.4 µM
TGI (OVCAR-3 ovarian): 4.45 µM and > 100 µM
TGI (SK-OV-3 ovarian): 5.11 µM and > 100 µM
TGI (U251 CNS): 7.96 µM and > 100 µM
GI50 (T-47D breast): 292 nM and 14.5 µM
TGI (T-47D breast): 4.81 µM and > 100 µM
TGI (SF-539 CNS): 2.65 µM and 48.3 µM
TGI (HL-60(TB) leukemia): 4.91 µM and 55.2 µM
TGI (A498 renal): 5.88 µM and 70.8 µM
TGI (OVCAR-5 ovarian): 6.96 µM and > 100 µM
TGI (UO-31 renal): 6.84 µM and 79 µM
GI50 (MCF7 breast): 337 nM and 16.2 µM
TGI (HOP-92 NSCLC): 5 µM and 76.4 µM
TGI (UACC-62 melanoma): 5.65 µM and > 100 µM
TGI (SK-MEL-5 melanoma): 2.47 µM and 42.4 µM
GI50 (K-562 leukemia): 333 nM and 28.3 µM
GI50 (COLO 205 colon): 392 nM and 14.7 µM
TGI (COLO 205 colon): 1.49 µM and 34.3 µM
GI50 (RPMI-8226 leukemia): 308 nM and 10.2 µM
TGI (HOP-62 NSCLC): 8.29 µM and > 100 µM

C/C(=N\NC(=S)N1CCN(c2ccccn2)CC1)c1ccccn1
TGI (UACC-257 melanoma): 91.6 nM and 2.1 µM
TGI (KM20L2 colon): 18.8 nM and 15.3 µM
TGI (XF 498 CNS): 6.82 nM and 18.6 µM
TGI (EKVX NSCLC): 0.889 nM and 11.8 µM
TGI (UACC-62 melanoma): 76.6 nM and 2.99 µM
TGI (COLO 205 colon): 45.6 nM and 26.5 µM
